PubChem BioAssay AID624417 (National Center for Advancing Translational Sciences (NCATS), 2012)
Among all 410,000 compounds or so, about 6,400 (1.6%) were called active. Inconclusive means that the source gave no clear call. Such entries were picked first, then a sample of the others. The call rests on the fitted dose curve; in most records, active means well fitted inhibition curve with a large enough effect; inconclusive means small, poorly fitted or top-dose-only effect; inactive means no such curve, though single readings can be large or run the other way. No potency is given beside an inconclusive call; the fits are too rough.

What follows are compounds tested against Glucagon-like peptide 1 receptor (Homo sapiens) (UniProt P43220) (assay: qHTS of GLP-1 Receptor Inverse Agonists (Inhibition Mode)). Settings: HEK293 GLP-1R CRE-luciferase, luminescence, 24 h, GLP-1R form is constitutively active; activity change, negative = inhibition: at 38.3 µM (top of the series) unless noted.
Chain of UniProt P43220 (P43220 whole entry, looked up): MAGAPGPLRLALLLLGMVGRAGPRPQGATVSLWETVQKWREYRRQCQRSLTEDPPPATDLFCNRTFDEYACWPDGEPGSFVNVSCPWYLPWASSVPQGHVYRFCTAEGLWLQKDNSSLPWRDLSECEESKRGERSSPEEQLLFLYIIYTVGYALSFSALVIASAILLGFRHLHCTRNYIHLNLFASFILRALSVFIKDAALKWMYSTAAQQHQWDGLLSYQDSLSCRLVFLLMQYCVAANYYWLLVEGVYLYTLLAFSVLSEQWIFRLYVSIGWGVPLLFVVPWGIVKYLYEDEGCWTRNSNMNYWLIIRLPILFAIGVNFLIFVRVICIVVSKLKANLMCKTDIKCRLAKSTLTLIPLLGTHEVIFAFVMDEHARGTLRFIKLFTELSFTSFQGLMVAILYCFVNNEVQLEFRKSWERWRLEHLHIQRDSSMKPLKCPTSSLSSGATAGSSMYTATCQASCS
Summary of the method: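 Constitutively active GLP-1R drives a cAMP-responsive luciferase in stably transfected HEK293 cells; test compounds are added after overnight (12 h) attachment and left 24 hr, and signal loss in luminescence marks inhibition.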
Further: nearly all actives have a fitted effect of over 55% in size.
On the % scale 0 is the no-effect control and ±100 the full control effect; potency means the concentration at half of the fitted maximal effect; tags describe the fitted curve by direction and shape.

Compound | Potency | activity change, negative = inhibition
Cc1ccccc1Nc1c(-c2ccco2)nc2c(C)cccn12 | inconclusive [inhibitor, single point] | –
O=C(c1cccc(C(F)(F)F)c1)C1CCCN(Cc2cccn2-c2ncccn2)C1 (stereo unspecified) | inconclusive [inhibitor, single point] | –
C=CCn1c(C(C)(C)C)nc2ccccc21 | inconclusive [inhibitor, single point] | –
O=C(NCc1ccco1)c1ccccc1NS(=O)(=O)c1ccc(Cl)s1 | inconclusive [inhibitor, single point] | –
COc1ccc(CN(C)C(=O)c2ccc(OCC(=O)Nc3cccc(C(F)(F)F)c3)c(OC)c2)c(OC)c1 | inconclusive [inhibitor, partial curve, poor fit] | –
CC(C)Oc1ccc(F)cc1-c1cc(C(=O)NCc2ccc(F)cc2)[nH]n1 | inconclusive [inhibitor, single point] | –
Cc1cc([N+](=O)[O-])ccc1NC(=O)CN1C2CCC1CC(NC(=O)NC13CC4CC(CC(C4)C1)C3)C2 (stereo unspecified) | inconclusive [inhibitor, full curve, poor fit] | –
CC(C)(O)c1[nH]c2cc(C(F)(F)F)ccc2c1C(C)(C)O | inconclusive [inhibitor, partial curve, poor fit] | –
CC(=O)Nc1ccc(S(=O)(=O)c2ccnc3cc(Cl)ccc23)cc1 | inconclusive [inhibitor, partial curve, poor fit] | –
CCCCCc1ccc(OCCOCCn2c[n+](C)c3ccccc32)c(CCCCC)c1 | inconclusive [inhibitor, partial curve, poor fit] | –
CSCCC(NC(=O)COc1ccccc1)C(=O)N1CCN(c2ccccc2)CC1 (stereo unspecified) | inconclusive [inhibitor, partial curve, poor fit] | –
C#CCSc1nc2sc3c(c2c(=O)n1Cc1ccccc1)CCCC3 | inconclusive [inhibitor, full curve, poor fit] | –
O=S(=O)(c1cccs1)N1CN(Cc2ccc(F)cc2)c2nc3ccccc3nc21 | inconclusive [inhibitor, partial curve, poor fit] | –
O=C(CC(=O)c1cc(Cl)ccc1O)c1ccccc1 | inconclusive [inhibitor, partial curve, poor fit] | –
N#Cc1cc([N+](=O)[O-])c(-n2nnc3ccccc32)c([N+](=O)[O-])c1 | – | inactive: 0%
CCCCC(=O)NC(c1ccccc1Cl)c1c(O)ccc2ccccc12 (stereo unspecified) | inconclusive [inhibitor, partial curve, poor fit] | –
